# Data taken from the supplement of paper PMC7826260.
# The other results are listed elsewhere or left out. Each Rep nickase domain was tested in vitro on the same pool of single strands (1 h at 37 °C, 3 µM enzyme); the outer parts of the 90-letter strands are left off. A value is the log2 ratio of uncut reads to the pool without enzyme; uncut sequences lie near 0, cut ones below; no hit call is given. Counts are relative to all reads; where an enzyme cuts many sequences, the uncut ones exceed 0.
# What was measured:
# Experiment in all cases: uncleaved DNA left, log2 of reads against the no-enzyme library (log2 ratio); higher = less cleavage (more negative = more Rep cleavage of the k-mer); sequences stand for … in CTCGTCCG…ACCGGAGA
# [1] = tested on: T1, Rep nickase domain of Muscovy duck circovirus
# T1 sequence (residues 1-111, tag not shown): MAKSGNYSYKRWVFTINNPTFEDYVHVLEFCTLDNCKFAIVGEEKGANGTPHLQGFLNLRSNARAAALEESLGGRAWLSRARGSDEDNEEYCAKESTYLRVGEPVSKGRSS
# Description: (§1)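 A pool of 90-nt single-stranded DNAs with seven random bases just before the constant AC of the nick site (name = the seven bases) was cut by 3 µM recombinant His6-SUMO-tagged Rep nickase domain (300 nM DNA, 50 mM HEPES pH 8.0, 50 mM NaCl, 1 mM MnCl2, 1 h, 37 °C, three replicates). Uncut DNA was amplified and sequenced.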
# [2] = tested on: T2, Rep nickase domain of banana bunchy top virus
# T2 sequence (residues 1-94, tag not shown): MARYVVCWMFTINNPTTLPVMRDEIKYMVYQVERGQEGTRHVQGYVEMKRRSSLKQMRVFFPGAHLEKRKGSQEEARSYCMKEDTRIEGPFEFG
# Description: as §1
# [3] = tested on: T3, Rep nickase domain of cabbage leaf curl virus
# T3 sequence (residues 1-116, tag not shown): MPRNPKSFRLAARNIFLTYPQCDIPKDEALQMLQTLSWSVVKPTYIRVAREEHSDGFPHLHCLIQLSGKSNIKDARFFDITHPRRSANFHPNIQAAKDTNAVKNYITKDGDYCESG
# Description: as §1
# [4] = tested on: T4, Rep nickase domain of chickpea chlorotic dwarf virus
# T4 sequence (residues 1-124, tag not shown): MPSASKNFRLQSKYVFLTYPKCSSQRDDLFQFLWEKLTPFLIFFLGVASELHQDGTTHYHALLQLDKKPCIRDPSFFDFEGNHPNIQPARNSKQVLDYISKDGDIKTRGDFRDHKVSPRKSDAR
# Description: as §1
# [5] = tested on: T5, Rep nickase domain of faba bean necrotic yellows virus
# T5 sequence (residues 1-98, tag not shown): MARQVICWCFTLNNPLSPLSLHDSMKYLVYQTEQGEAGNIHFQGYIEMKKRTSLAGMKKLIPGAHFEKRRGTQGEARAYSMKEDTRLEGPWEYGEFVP
# Description: as §1
# [6] = tested on: T6, Rep nickase domain of maize striate mosaic virus
# T6 sequence (residues 1-117, tag not shown): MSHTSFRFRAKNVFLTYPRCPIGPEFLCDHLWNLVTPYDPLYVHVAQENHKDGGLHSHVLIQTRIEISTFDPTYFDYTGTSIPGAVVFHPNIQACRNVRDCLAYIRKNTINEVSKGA
# Description: as §1
# [7] = tested on: T7, Rep nickase domain of porcine circovirus 2
# T7 sequence (residues 2-116, tag not shown): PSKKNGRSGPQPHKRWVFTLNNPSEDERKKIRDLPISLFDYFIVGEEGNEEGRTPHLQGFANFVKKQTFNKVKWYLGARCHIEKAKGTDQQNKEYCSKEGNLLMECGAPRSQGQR
# Description: as §1
# [8] = tested on: T8, Rep nickase domain of tomato yellow leaf curl virus
# T8 sequence (residues 1-136, tag not shown): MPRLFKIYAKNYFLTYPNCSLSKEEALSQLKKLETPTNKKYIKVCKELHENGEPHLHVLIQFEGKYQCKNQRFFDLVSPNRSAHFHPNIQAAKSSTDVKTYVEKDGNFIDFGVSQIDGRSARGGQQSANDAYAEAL
# Description: as §1
# [9] = tested on: T9, Rep nickase domain of wheat dwarf virus
# T9 sequence (residues 1-137, tag not shown): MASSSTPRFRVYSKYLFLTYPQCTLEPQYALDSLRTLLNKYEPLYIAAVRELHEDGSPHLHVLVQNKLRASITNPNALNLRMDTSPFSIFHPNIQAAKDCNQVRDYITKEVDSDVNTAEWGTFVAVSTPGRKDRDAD
# Description: as §1
Sequence,uncleaved DNA left (log2) [1],uncleaved DNA left (log2) [2],uncleaved DNA left (log2) [3],uncleaved DNA left (log2) [4],uncleaved DNA left (log2) [5],uncleaved DNA left (log2) [6],uncleaved DNA left (log2) [7],uncleaved DNA left (log2) [8],uncleaved DNA left (log2) [9]
TACCTCT,0.0924,0.0945,-0.849,-2.81,0.0592,-0.505,-1.96,0.067,-0.0994
TTCCCAC,0.0482,-0.0131,0.178,-0.111,-0.101,-0.224,-0.26,0.0652,0.0994
ATATTGC,0.0812,0.0582,-0.373,0.817,0.16,-0.134,0.244,0.166,-0.023
TATGAAC,0.0306,0.0114,0.0635,-0.0749,0.0355,-0.231,0.0702,0.0727,0.0297
AGATTGC,0.059,-0.0639,-0.634,0.331,0.0111,-0.845,0.0956,0.126,-0.0797
GTAAGCC,0.0486,0.0482,-1.56,-1.85,-0.0636,0.423,0.0736,0.00581,-0.224
AATTGTC,0.108,-0.0352,-0.537,-0.675,0.122,-1.19,-0.132,0.0833,0.0636
GTCGCTT,0.0113,-0.148,0.25,0.302,0.00565,1.11,-0.0081,-0.214,-0.0606
